# Source: the supplement of paper PMC8728848
# This is one part of the list.
# B1: GS14009A-pdi-495-27-495 (Parabacteroides distasonis) (protein)
# chain: FEEVNTDPDSPTDVPTTNLLAYSLYYTSYRLYDRWFAMDEPMTFCGYASKMTYIDESRYNFRTGVQDTNWEYLYRILNNLKDIEKRATFNETPNMLNVSKVMQVHLMQVATDRWRDVPYTDAAKMTDGILQPKYDKQEDIYPGLLATLKEAADGFADGGSDDLGEGDLLFGGDIEKWQRYCNSMRLRLAMRISEVSPALAKETVEEVMGNPTKYPIMESNDDNAFFWWIGTDPNYYEPMADGYRTRKTEYCAADVIVDHMNTREDPRRSSYFQPTKESVEAGEPKYVGYTIGAKANAVASKYSIWGARFFTDLAGFSPYMRVAEPWFCVAEASMLGWNTGISAEDAYNKAVTYSMEENSVSAEDIADYLANAGKFTNDKKQIYYEEWVAMFKQGMEGWSLYRRTGVPDNLYPAPGRPANYSNHNVPPFRSPYPDKERNLNNANCAPFDAEVVDNLWGKQMWWDTRTGVH
# Columns and labels:
# Test in all cases: glycan array binding signal (z-score within array); higher = stronger binding
# Details in all cases: glycan notation: IUPAC condensed, linker removed
# [1] = biological target: Neu5Ac(a2-3)Gal(b1-3)[Fuc(a1-4)]GlcNAc
# Method in brief: (§1)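 The binding signal is a Z-score computed within each array. Data were drawn from 3228 arrays in the Consortium for Functional Glycomics database, restricted to those with a known protein sequence. Scores were averaged over arrays of the same protein sequence at different concentrations or buffers, and over linkers, and negative values can be taken as non-binding.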
# [2] = biological target: Neu5Ac(a2-3)Gal(b1-3)[Fuc(a1-4)]GlcNAc(b1-3)Gal(b1-3)[Fuc(a1-4)]GlcNAc
# Method in brief: as §1
# [3] = biological target: Neu5Ac(a2-3)Gal(b1-3)[Fuc(a1-4)]GlcNAc(b1-3)Gal(b1-4)[Fuc(a1-3)]GlcNAc
# Method in brief: as §1
# [4] = biological target: Neu5Ac(a2-3)Gal(b1-3)[GlcNAc(b1-6)]GalNAc
# Method in brief: as §1
# [5] = biological target: Neu5Ac(a2-3)Gal(b1-3)[Neu5Ac(a2-6)]GalNAc
# Method in brief: as §1
# [6] = biological target: Neu5Ac(a2-3)Gal(b1-3)[Neu5Ac(a2-6)]GlcNAc(b1-3)[Fuc(a1-3)[Gal(b1-4)]GlcNAc(b1-6)]Gal(b1-4)Glc
# Method in brief: as §1
# [7] = biological target: Neu5Ac(a2-3)Gal(b1-3)]Neu5Ac(a2-3)Gal(b1-4)]GlcNAc
# Method in brief: as §1
# [8] = biological target: Neu5Ac(a2-3)Gal(b1-4)Glc
# Method in brief: as §1
# [9] = biological target: Neu5Ac(a2-3)Gal(b1-4)GlcNAc
# Method in brief: as §1
# [10] = biological target: Neu5Ac(a2-3)Gal(b1-4)GlcNAc(b1-2)Man
# Method in brief: as §1
# [11] = biological target: Neu5Ac(a2-3)Gal(b1-4)GlcNAc(b1-2)Man(a1-3)[GlcNAc(b1-4)][Neu5Ac(a2-3)Gal(b1-4)GlcNAc(b1-2)Man(a1-6)]Man(b1-4)GlcNAc(b1-4)GlcNAc
# Method in brief: as §1
# [12] = biological target: Neu5Ac(a2-3)Gal(b1-4)GlcNAc(b1-2)Man(a1-3)[Neu5Ac(a2-3)Gal(b1-4)GlcNAc(b1-2)Man(a1-6)]Man(b1-4)GlcNAc(b1-4)GlcNAc
# Method in brief: as §1
# [13] = biological target: Neu5Ac(a2-3)Gal(b1-4)GlcNAc(b1-2)Man(a1-3)[Neu5Ac(a2-3)Gal(b1-4)GlcNAc(b1-2)Man(a1-6)]Man(b1-4)GlcNAc(b1-4)[Fuc(a1-6)]GlcNAc
# Method in brief: as §1
# [14] = biological target: Neu5Ac(a2-3)Gal(b1-4)GlcNAc(b1-2)Man(a1-3)[Neu5Ac(a2-6)Gal(b1-4)GlcNAc(b1-2)Man(a1-6)]Man(b1-4)GlcNAc(b1-4)GlcNAc
# Method in brief: as §1
# [15] = biological target: Neu5Ac(a2-3)Gal(b1-4)GlcNAc(b1-2)[Neu5Ac(a2-3)Gal(b1-4)GlcNAc(b1-4)]Man(a1-3)[GlcNAc(b1-4)][Neu5Ac(a2-3)Gal(b1-4)GlcNAc(b1-2)[Neu5Ac(a2-3)Gal(b1-4)GlcNAc(b1-6)]Man(a1-6)]Man(b1-4)GlcNAc(b1-4)GlcNAc
# Method in brief: as §1
# [16] = biological target: Neu5Ac(a2-3)Gal(b1-4)GlcNAc(b1-2)[Neu5Ac(a2-3)Gal(b1-4)GlcNAc(b1-4)]Man(a1-3)[GlcNAc(b1-4)][Neu5Ac(a2-3)Gal(b1-4)GlcNAc(b1-4)Man(a1-6)]Man(b1-4)GlcNAc(b1-4)GlcNAc
# Method in brief: as §1
# [17] = biological target: Neu5Ac(a2-3)Gal(b1-4)GlcNAc(b1-2)[Neu5Ac(a2-3)Gal(b1-4)GlcNAc(b1-6)]Man(a1-6)[Neu5Ac(a2-3)Gal(b1-4)GlcNAc(b1-2)Man(a1-3)]Man(b1-4)GlcNAc(b1-4)GlcNAc
# Method in brief: as §1
# [18] = biological target: Neu5Ac(a2-3)Gal(b1-4)GlcNAc(b1-2)[Neu5Ac(a2-3)Gal(b1-4)GlcNAc(b1-6)]Man(a1-6)[Neu5Ac(a2-3)Gal(b1-4)GlcNAc(b1-2)Man(a1-3)][GlcNAc(b1-4)]Man(b1-4)GlcNAc(b1-4)GlcNAc
# Method in brief: as §1
# [19] = biological target: Neu5Ac(a2-3)Gal(b1-4)GlcNAc(b1-3)Gal
# Method in brief: as §1
# [20] = biological target: Neu5Ac(a2-3)Gal(b1-4)GlcNAc(b1-3)Gal(b1-3)GlcNAc
# Method in brief: as §1
# [21] = biological target: Neu5Ac(a2-3)Gal(b1-4)GlcNAc(b1-3)Gal(b1-4)GlcNAc
# Method in brief: as §1
# [22] = biological target: Neu5Ac(a2-3)Gal(b1-4)GlcNAc(b1-3)Gal(b1-4)GlcNAc(b1-2)Man(a1-3)[Neu5Ac(a2-3)Gal(b1-4)GlcNAc(b1-3)Gal(b1-4)GlcNAc(b1-2)Man(a1-6)]Man(b1-4)GlcNAc(b1-4)GlcNAc
# Method in brief: as §1
# [23] = biological target: Neu5Ac(a2-3)Gal(b1-4)GlcNAc(b1-3)Gal(b1-4)GlcNAc(b1-3)Gal(b1-4)GlcNAc
# Method in brief: as §1
# [24] = biological target: Neu5Ac(a2-3)Gal(b1-4)GlcNAc(b1-3)Gal(b1-4)GlcNAc(b1-3)Gal(b1-4)GlcNAc(b1-2)Man(a1-3)[Neu5Ac(a2-3)Gal(b1-4)GlcNAc(b1-3)Gal(b1-4)GlcNAc(b1-3)Gal(b1-4)GlcNAc(b1-2)Man(a1-6)]GalNAc
# Method in brief: as §1
# [25] = biological target: Neu5Ac(a2-3)Gal(b1-4)GlcNAc(b1-3)Gal(b1-4)GlcNAc(b1-3)GalNAc
# Method in brief: as §1
# [26] = biological target: Neu5Ac(a2-3)Gal(b1-4)GlcNAc(b1-3)Gal(b1-4)GlcNAc(b1-3)[Neu5Ac(a2-3)Gal(b1-4)GlcNAc(b1-3)Gal(b1-4)GlcNAc(b1-6)]GalNAc
# Method in brief: as §1
# [27] = biological target: Neu5Ac(a2-3)Gal(b1-4)GlcNAc(b1-3)Gal(b1-4)GlcNAc(b1-6)[Gal(b1-3)]GalNAc
# Method in brief: as §1
# [28] = biological target: Neu5Ac(a2-3)Gal(b1-4)GlcNAc(b1-3)Gal(b1-4)[Fuc(a1-3)]GlcNAc
# Method in brief: as §1
# [29] = biological target: Neu5Ac(a2-3)Gal(b1-4)GlcNAc(b1-3)GalNAc
# Method in brief: as §1
# [30] = biological target: Neu5Ac(a2-3)Gal(b1-4)GlcNAc(b1-3)[Neu5Ac(a2-3)Gal(b1-4)GlcNAc(b1-6)]GalNAc
# Method in brief: as §1
# [31] = biological target: Neu5Ac(a2-3)Gal(b1-4)GlcNAc(b1-6)GalNAc
# Method in brief: as §1
# [32] = biological target: Neu5Ac(a2-3)Gal(b1-4)GlcNAc(b1-6)[Gal(b1-3)]GalNAc
# Method in brief: as §1
# [33] = biological target: Neu5Ac(a2-3)Gal(b1-4)GlcNAc(b1-6)[Neu5Ac(a2-3)Gal(b1-3)]GalNAc
# Method in brief: as §1
# [34] = biological target: Neu5Ac(a2-3)Gal(b1-4)GlcNAc6S
# Method in brief: as §1
# [35] = biological target: Neu5Ac(a2-3)Gal(b1-4)[Fuc(a1-3)]GlcNAc
# Method in brief: as §1
# [36] = biological target: Neu5Ac(a2-3)Gal(b1-4)[Fuc(a1-3)]GlcNAc(b1-2)Man
# Method in brief: as §1
# [37] = biological target: Neu5Ac(a2-3)Gal(b1-4)[Fuc(a1-3)]GlcNAc(b1-3)Gal
# Method in brief: as §1
# [38] = biological target: Neu5Ac(a2-3)Gal(b1-4)[Fuc(a1-3)]GlcNAc(b1-3)Gal(b1-4)GlcNAc
# Method in brief: as §1
# [39] = biological target: Neu5Ac(a2-3)Gal(b1-4)[Fuc(a1-3)]GlcNAc(b1-3)Gal(b1-4)[Fuc(a1-3)]GlcNAc(b1-3)Gal(b1-4)[Fuc(a1-3)]GlcNAc
# Method in brief: as §1
# [40] = biological target: Neu5Ac(a2-3)Gal(b1-4)[Fuc(a1-3)]GlcNAc(b1-3)GalNAc
# Method in brief: as §1
# [41] = biological target: Neu5Ac(a2-3)Gal(b1-4)[Fuc(a1-3)]GlcNAc(b1-6)[Gal(b1-3)]GalNAc
# Method in brief: as §1
# [42] = biological target: Neu5Ac(a2-3)Gal(b1-4)[Fuc(a1-3)]GlcNAc(b1-6)[Neu5Ac(a2-3)Gal(b1-3)]GalNAc
# Method in brief: as §1
# [43] = biological target: Neu5Ac(a2-3)Gal(b1-4)[Fuc(a1-3)]GlcNAc6S
# Method in brief: as §1
# [44] = biological target: Neu5Ac(a2-3)Gal6S(b1-4)GlcNAc
# Method in brief: as §1
# [45] = biological target: Neu5Ac(a2-3)Gal6S(b1-4)[Fuc(a1-3)]GlcNAc
# Method in brief: as §1
binder,measurement,setting,value
B1,glycan array binding signal (z-score),[1],-0.401
same,glycan array binding signal (z-score),[2],-0.618
same,glycan array binding signal (z-score),[3],0.208
same,glycan array binding signal (z-score),[4],-0.177
same,glycan array binding signal (z-score),[5],-0.544
same,glycan array binding signal (z-score),[6],-0.04
same,glycan array binding signal (z-score),[7],-1.02
same,glycan array binding signal (z-score),[8],-0.074
same,glycan array binding signal (z-score),[9],-0.348
same,glycan array binding signal (z-score),[10],0.633
same,glycan array binding signal (z-score),[11],0.759
same,glycan array binding signal (z-score),[12],-0.114
same,glycan array binding signal (z-score),[13],0.457
same,glycan array binding signal (z-score),[14],-0.337
same,glycan array binding signal (z-score),[15],-0.473
same,glycan array binding signal (z-score),[16],0.12
same,glycan array binding signal (z-score),[17],0.438
same,glycan array binding signal (z-score),[18],-0.498
same,glycan array binding signal (z-score),[19],-0.438
same,glycan array binding signal (z-score),[20],-0.508
same,glycan array binding signal (z-score),[21],-0.427
same,glycan array binding signal (z-score),[22],-0.54
same,glycan array binding signal (z-score),[23],0.69
same,glycan array binding signal (z-score),[24],1.45
same,glycan array binding signal (z-score),[25],-0.227
same,glycan array binding signal (z-score),[26],-0.779
same,glycan array binding signal (z-score),[27],-0.266
same,glycan array binding signal (z-score),[28],-0.091
same,glycan array binding signal (z-score),[29],0.332
same,glycan array binding signal (z-score),[30],-0.41
same,glycan array binding signal (z-score),[31],-0.512
same,glycan array binding signal (z-score),[32],-0.294
same,glycan array binding signal (z-score),[33],-0.068
same,glycan array binding signal (z-score),[34],-0.58
same,glycan array binding signal (z-score),[35],-0.201
same,glycan array binding signal (z-score),[36],-0.004
same,glycan array binding signal (z-score),[37],-0.797
same,glycan array binding signal (z-score),[38],0.015
same,glycan array binding signal (z-score),[39],-0.333
same,glycan array binding signal (z-score),[40],0.555
same,glycan array binding signal (z-score),[41],0.091
same,glycan array binding signal (z-score),[42],0.048
same,glycan array binding signal (z-score),[43],-0.085
same,glycan array binding signal (z-score),[44],-0.508
same,glycan array binding signal (z-score),[45],-0.595
